Results from the supplement of paper PMC3334620.
The full ranking holds about 33,000 sequences; the median of “E-score (-0.5 to 0.5)” is about -0.013, and the highest 2% start at about 0.3. This is one part of the list.

target: T1, Msn1 (UniProt P22148); test: PBM E-score (8-mer binding enrichment) (E-score (-0.5 to 0.5)); higher = stronger / more preferred TF binding; most listed sequences are background and not binding sites; conditions: protein concentration: 200 nM; construct: GST-full length
T1 sequence: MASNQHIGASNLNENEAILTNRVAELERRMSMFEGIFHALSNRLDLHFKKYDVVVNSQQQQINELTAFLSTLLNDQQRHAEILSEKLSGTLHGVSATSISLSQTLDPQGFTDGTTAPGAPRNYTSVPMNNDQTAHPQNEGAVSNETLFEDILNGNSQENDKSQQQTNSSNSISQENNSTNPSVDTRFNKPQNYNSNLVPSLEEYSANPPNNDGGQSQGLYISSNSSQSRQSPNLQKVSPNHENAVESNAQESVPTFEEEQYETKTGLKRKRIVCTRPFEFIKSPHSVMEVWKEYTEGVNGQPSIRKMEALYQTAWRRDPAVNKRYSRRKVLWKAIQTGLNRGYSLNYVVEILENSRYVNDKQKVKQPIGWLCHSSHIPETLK
Method in brief: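 E-scores (a modified Wilcoxon-Mann-Whitney statistic) were assigned by the Universal PBM Analysis Suite to every ungapped eight-base word pooled with its reverse complement. The input came from universal all-10-mer Agilent arrays made double-stranded by primer extension and probed with GST-tagged yeast transcription factors at about 100-200 nM. Fluorescent anti-GST detected bound protein, and masliner normalised the scans.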

Going from ATAGATGG to AAAGCGGT, the “PBM E-score” value rises from -0.327 to 0.0231.

First: ATGTTCGC
Second: CAAGAGGC
The “PBM E-score” value of the first is higher: -0.0354 for the first, -0.241 for the second.

Going from CCTTCGAC to GATCTCTA, the “PBM E-score” value falls from -0.0883 to -0.115.

Going from ACTTAACG to CACGCTGC, the “PBM E-score” value falls from -0.0158 to -0.184.

First: AGGTCCAC
Second: ACAAGCGA
The “PBM E-score” value of the first is lower: -0.067 for the first, 0.202 for the second.

Going from GAGCGGCC to CCTGATAC, the “PBM E-score” value rises from -0.151 to 0.12.

Going from AAATCTGT to CAGTGTTC, the “PBM E-score” value falls from 0.138 to 0.00314.

Going from CCACTGCG to ATCTCGTC, the “PBM E-score” value rises from -0.0568 to 0.165.

Going from AGCCCAAG to AAAATAGT, the “PBM E-score” value rises from -0.267 to 0.0988.

Compared with CCAGTTGC, TGCCCCCA is higher in “PBM E-score” value: -0.24 for the first, -0.171 for the second.

Compared with TGAGAGCA, ACAGCGAA is higher in “PBM E-score” value: -0.137 for the first, -0.0342 for the second.

Compared with ATCATTAA, AACCAATA is lower in “PBM E-score” value: 0.207 for the first, 0.0128 for the second.

Compared with AAGTGTTG, CCCCTCCG is lower in “PBM E-score” value: 0.0761 for the first, -0.121 for the second.

Going from TACAGTCA to AACGAACC, the “PBM E-score” value falls from 0.0587 to 0.0557.

Going from ACGAAGAC to CGCTCTGA, the “PBM E-score” value falls from 0.0468 to -0.0541.

First: CCCCGGTC
Second: CATCAGCA
The “PBM E-score” value of the first is lower: -0.26 for the first, -0.221 for the second.

Compared with CGTGGCTA, ACCGTTCG is higher in “PBM E-score” value: -0.128 for the first, 0.0205 for the second.

Compared with CATTGGGA, AATCAATA is lower in “PBM E-score” value: 0.146 for the first, 0.0582 for the second.

Going from GATCCATC to CTTCGTCA, the “PBM E-score” value rises from -0.0507 to 0.0472.

Compared with CGATACAC, CCCGCCAC is higher in “PBM E-score” value: -0.137 for the first, -0.135 for the second.

Going from TACGCCAA to AAAGGGCG, the “PBM E-score” value rises from -0.191 to -0.108.

First: CGCCGAGA
Second: ATTTGAAC
The “PBM E-score” value of the first is lower: -0.0986 for the first, -0.0178 for the second.

Compared with ATAAATCC, AACAAAGT is higher in “PBM E-score” value: 0.0224 for the first, 0.157 for the second.

First: CCCGATTC
Second: ACACTGAC
The “PBM E-score” value of the first is higher: 0.142 for the first, 0.119 for the second.

First: ACACGGGC
Second: AGTACTCC
The “PBM E-score” value of the first is higher: -0.00403 for the first, -0.132 for the second.

First: CGTCAGCA
Second: GATCTAAC
The “PBM E-score” value of the first is lower: -0.129 for the first, 0.0165 for the second.

Going from AATTTTCT to AACAGTCT, the “PBM E-score” value falls from 0.0709 to -0.0205.

Compared with AATATATG, AGTTCGCG is lower in “PBM E-score” value: 0.131 for the first, 0.0311 for the second.

Going from ATAAAGCG to CCGTCCGC, the “PBM E-score” value falls from 0.179 to -0.252.

Compared with GATGAGAA, CAGGGTGC is lower in “PBM E-score” value: -0.0683 for the first, -0.249 for the second.

First: AAGCAACA
Second: AAATAGAC
The “PBM E-score” value of the first is lower: -0.0649 for the first, -0.015 for the second.

Compared with AGAGGTTG, GTACCATA is higher in “PBM E-score” value: -0.182 for the first, 0.0461 for the second.

Going from CGTACGTC to GTCCAAAC, the “PBM E-score” value rises from 0.00863 to 0.175.

Compared with AACAGAGG, ACTCACAC is higher in “PBM E-score” value: -0.14 for the first, -0.0577 for the second.

First: GCGAGGAA
Second: GGCTCCAC
The “PBM E-score” value of the first is higher: -0.148 for the first, -0.386 for the second.

First: GATGGTCC
Second: ACGCAATA
The “PBM E-score” value of the first is lower: -0.0591 for the first, 0.0746 for the second.

First: TATGTTGA
Second: CCAGGACA
The “PBM E-score” value of the first is lower: 0.0896 for the first, 0.469 for the second.

Compared with GACGTCCA, AGTCAAGG is lower in “PBM E-score” value: 0.207 for the first, -0.102 for the second.

Compared with ACACTTAC, GCTCGAAC is lower in “PBM E-score” value: 0.19 for the first, -0.114 for the second.

Going from CGGTTAGA to CCCCGAGG, the “PBM E-score” value rises from -0.22 to -0.0295.

First: ACGTTCTG
Second: ACATTGCA
The “PBM E-score” value of the first is lower: 0.0235 for the first, 0.0905 for the second.

First: AACGCCCG
Second: CATGAAGC
The “PBM E-score” value of the first is lower: -0.0596 for the first, 0.0531 for the second.

Compared with CTAGAACC, ATCCGCAT is higher in “PBM E-score” value: -0.157 for the first, 0.0989 for the second.

First: AAACTTGT
Second: CGATCTCA
The “PBM E-score” value of the first is higher: 0.273 for the first, -0.00064 for the second.

First: GGGCCGAA
Second: ATGTGAAA
The “PBM E-score” value of the first is lower: -0.19 for the first, -0.0025 for the second.

First: ACCACCAA
Second: ACAATTCT
The “PBM E-score” value of the first is lower: -0.185 for the first, 0.188 for the second.

Compared with GCTGTAGA, AAGTGCTC is lower in “PBM E-score” value: 0.00459 for the first, -0.172 for the second.

Going from CTCAGTGA to ATGATCAG, the “PBM E-score” value rises from -0.0334 to 0.0415.

First: CAGTAGTA
Second: TCGCATCA
The “PBM E-score” value of the first is lower: -0.00219 for the first, 0.0502 for the second.

First: GAGTATCA
Second: GGGTTCAC
The “PBM E-score” value of the first is lower: -0.144 for the first, -0.0777 for the second.

First: CATAGACC
Second: ATGCTGTA
The “PBM E-score” value of the first is lower: -0.0541 for the first, 0.165 for the second.

Going from GAGTATCC to GGGATCTA, the “PBM E-score” value falls from -0.0665 to -0.115.

Going from ATAGCCGA to TCGTCCCA, the “PBM E-score” value rises from 0.0849 to 0.213.

First: AACGCAGT
Second: CTAACAGC
The “PBM E-score” value of the first is lower: -0.207 for the first, -0.0745 for the second.

First: CAGCCCTA
Second: AATATATA
The “PBM E-score” value of the first is lower: 0.00696 for the first, 0.209 for the second.

First: ATTTGTAA
Second: ATTTCGTG
The “PBM E-score” value of the first is lower: 0.169 for the first, 0.179 for the second.

Compared with AGGACCCG, GAACCTTA is higher in “PBM E-score” value: -0.0271 for the first, 0.0292 for the second.

Going from ATGGTTGG to AGTAATGG, the “PBM E-score” value falls from 0.00062 to -0.0129.

Compared with AGCTTCCT, AATCGGAA is higher in “PBM E-score” value: 0.0738 for the first, 0.16 for the second.

First: AAAACCGT
Second: GGGGAGGA
The “PBM E-score” value of the first is higher: 0.118 for the first, -0.274 for the second.

Going from CGCCAACA to CTTCTACA, the “PBM E-score” value falls from 0.0678 to 0.0255.

Compared with GCAGGGAA, CTTGTAAA is higher in “PBM E-score” value: -0.0187 for the first, 0.114 for the second.

Compared with GGCGGAGA, GCATCGGC is higher in “PBM E-score” value: -0.101 for the first, -0.0598 for the second.

First: GTAGGTTA
Second: GTCTAAGA
The “PBM E-score” value of the first is lower: -0.0951 for the first, 0.179 for the second.

Going from ACCTTTAT to AGGAGACA, the “PBM E-score” value rises from -0.0516 to 0.0232.

Compared with CTGGGTTC, GTAAGAGA is higher in “PBM E-score” value: -0.119 for the first, -0.0347 for the second.

First: GCGTACCC
Second: CAATTCGC
The “PBM E-score” value of the first is lower: -0.142 for the first, 0.231 for the second.

Compared with ACGTGCTA, CACTGCGA is lower in “PBM E-score” value: -0.167 for the first, -0.178 for the second.

Going from CTTCTCAA to GTTTTACA, the “PBM E-score” value rises from -0.118 to -0.0921.

Compared with CTCTATTC, GTAATGAC is higher in “PBM E-score” value: -0.0327 for the first, 0.126 for the second.

Going from ATCCACGC to GGTCCCTA, the “PBM E-score” value rises from -0.11 to -0.0166.

First: CGATATAC
Second: CTGTCGTA
The “PBM E-score” value of the first is lower: -0.0803 for the first, -0.0467 for the second.

Going from GCCCTCAA to ACCGGAGA, the “PBM E-score” value rises from -0.252 to 0.142.

Going from CGTAGAGA to CTCGCCGC, the “PBM E-score” value falls from 0.0273 to -0.0571.

First: AACCCGAG
Second: ATCCAGGC
The “PBM E-score” value of the first is higher: 0.13 for the first, -0.191 for the second.

Compared with CTCTAGCC, GGAAGCCC is lower in “PBM E-score” value: -0.137 for the first, -0.227 for the second.

First: CCGAAGAC
Second: CGCGTTGA
The “PBM E-score” value of the first is higher: 0.149 for the first, -0.0678 for the second.

First: GTATACCA
Second: AAACACTA
The “PBM E-score” value of the first is lower: -0.0444 for the first, 0.0993 for the second.

Going from AAAAGGGA to AACATGCG, the “PBM E-score” value falls from 0.0884 to 0.0442.

Going from CCTAACGA to AAAAAGAT, the “PBM E-score” value rises from -0.0165 to 0.0547.

Compared with AGGAAGTA, CTCCCCGC is higher in “PBM E-score” value: -0.0694 for the first, -0.0568 for the second.

Going from AGGATGCG to GTTCCGTA, the “PBM E-score” value rises from -0.124 to 0.101.

Going from ACTAGAAG to CGGCTAAA, the “PBM E-score” value rises from -0.106 to 0.169.

Compared with GACGCGTC, GGGGGTCA is lower in “PBM E-score” value: 0.0432 for the first, -0.36 for the second.

Going from TGTTTGAA to AGAATTCG, the “PBM E-score” value falls from 0.138 to -0.035.

Compared with ACGTGGTG, ATGGCACC is lower in “PBM E-score” value: -0.0637 for the first, -0.104 for the second.
